Test results taken from the RNAGym collection of RNA variant scans (doi:10.1093/nar/gkz1192).
Read counts are not given, so values of variants with three or more changes are uncertain.

B1: CPEB3 Ribozyme (parent)
chain: UAACAGGGGGCCACAGCAGAAGCGUUCACGUCGCAGCCCCUGUCAGAUUCUGGUGAAUCUGCGAAUUCUGCUGUAUAUCUC

Variants of: B1
Assay: self-cleavage, relative activity (ratio to wild type); higher = more cleavage; in vitro, sequencing
In short: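 Libraries of CPEB3 self-cleaving ribozyme mutants came from rounds of error-prone PCR and carried barcodes, which DNA sequencing matched to variants. In vitro transcription used T7 RNA polymerase at 37°C for 5 hours, with a further 15 min in DNase I before EDTA stopped the reaction; the ribozymes cleaved during both steps. The RNA was reverse transcribed with template switching and sequenced on Illumina. Relative activity is the cleaved/total read fraction of a variant divided by that of the unmutated ribozyme, averaged over three batches with at least 5 reads.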

| Variant | self-cleavage |
| --- | --- |
| A3G A5G A47G A57C U72A | 0.38 |
| A3G A5G C11G U67G U72C | 0.1 |
| A3G A5G C12U | 0.95 |
| A3G A5G C14U U26A U76C | 0.33 |
| A3G A5G C23A U25C U41C A65G U78C | 0.09 |
| A3G A5G G6A A15U A35G U72C U78C | 0.7 |
| A3G A5G G6A U41A U51A C59U U76A | 0.05 |
| A3G A5G G9A C40U | 0.12 |
| A3G A5G G9U U41C U78C U80A | 0.56 |
| A3G A5G G10A U54C U67C | 0.16 |
| A3G A5G G10C A20G A65U | 0.49 |
| A3G A5G G24A U26C U48C U60C U76C | 0.06 |
| A3G A5G U25C A57U U72C U78C | 0.11 |
| A3G A5G U41C | 0.72 |
| A3G A5G U60A | 0 |
| A3G A5G U69C U76C U80A | 0.27 |
| A3G A5G U72C C81A | 1 |
| A3G A5G U72C U78C | 1.03 |
| A3G A5U A13G A57G U72A | 0.31 |
| A3G A5U A13U G19A A28U A47U U54C | 0.05 |
| A3G A5U A15G A28U U49C A65G | 0.49 |
| A3G A5U A15U G22C U31C | 0.53 |
| A3G A5U A18G C59A U76A | 0.1 |
| A3G A5U A18G U25A A57G U72C | 0.06 |

| Variant | self-cleavage |
| --- | --- |
| A3G A5U A18U U41C U60C C79A | 0.63 |
| A3G A5U A20G U25C G42A U58C U72A | 0.15 |
| A3G A5U A28G G33A U49C | 0.48 |
| A3G A5U A45G | 0.85 |
| A3G A5U A47G U49C A56C | 0.58 |
| A3G A5U C32U U41C A57U U69C U80G | 0.07 |
| A3G A5U C39G U67C U74C | 0.23 |
| A3G A5U C40A | 0.21 |
| A3G A5U G7U A18G U54C U58A A77U | 0.08 |
| A3G A5U G9A A21G A28G U54C U72A | 0.36 |
| A3G A5U G9A A28G A56G | 0.12 |
| A3G A5U G24C A56G | 0.44 |
| A3G A5U G30C | 0.44 |
| A3G A5U U25A U41C C44A U54C C68G | 0.29 |
| A3G A5U U25C U41C | 0.66 |
| A3G A5U U31A G53C U80C | 0.62 |
| A3G A5U U31C | 1.14 |
| A3G A5U U41A U54C A56G U60A | 0.1 |
| A3G A5U U49C | 0.66 |
| A3G A5U U74C | 1.14 |
| A3G A5U U76C | 1.04 |
| A3G A13C A15G U49C A65G | 0.31 |
| A3G A13C A20G G22A U25C U74A | 0.22 |
| A3G A13C U51A | 0.83 |

| Variant | self-cleavage |
| --- | --- |
| A3G A13G A15G A35G | 0.9 |
| A3G A13G A15G U51G A57G U80A | 0.5 |
| A3G A13G A18G C29G | 0.3 |
| A3G A13G A20G C44U U54A A57G C71A | 0.11 |
| A3G A13G A20G G22C U31C A35U | 0.06 |
| A3G A13G A20G U43A | 0.9 |
| A3G A13G A20U C34G | 0.65 |
| A3G A13G A21G U25A U51A G53A U74C | 0.16 |
| A3G A13G A21U A45C U72C | 0.08 |
| A3G A13G A35G A45G A57G U72C A75G | 0.42 |
| A3G A13G A35G A77U | 1.06 |
| A3G A13G A35U U58A | 0.36 |
| A3G A13G A45U A64G U66C U76C | 0.41 |
| A3G A13G A47G | 0.89 |
| A3G A13G A56G U72C | 0.91 |
| A3G A13G A56U | 0.39 |
| A3G A13G A64G C79A | 1.01 |
| A3G A13G A64G U80C | 0.54 |
| A3G A13G A64U U69C | 0.37 |
| A3G A13G C14A U60C | 0.24 |
| A3G A13G C14U G16C U26C A75C U78C | 0.47 |
| A3G A13G C17A C39U | 0.26 |
| A3G A13G C29U U43C C50U G52C | 0.14 |
| A3G A13G C34A A64G | 0.11 |

| Variant | self-cleavage |
| --- | --- |
| A3G A13G C34U U51C | 0.33 |
| A3G A13G C37U A56G U74C | 0.21 |
| A3G A13G C40U A75G | 0.61 |
| A3G A13G G19A A20G C32U U60C A75U | 0.06 |
| A3G A13G G30C G53A U69C | 0.33 |
| A3G A13G U25A U54A | 0.72 |
| A3G A13G U25C A45U U51C U54C | 0 |
| A3G A13G U26A U41C U51G | 0.31 |
| A3G A13G U26C C29A G55A U60A U72A | 0.18 |
| A3G A13G U26C U54A U69A U72A | 0.15 |
| A3G A13G U31A G33A U54C U66C | 0.11 |
| A3G A13G U41C U51A A65U U76A A77G | 0.3 |
| A3G A13G U43C | 0.48 |
| A3G A13G U48C | 0.31 |
| A3G A13G U54C C59U | 0.61 |
| A3G A13G U69A A77G | 0.61 |
| A3G A13U A15G C32U A35G C39U U60C | 0.3 |
| A3G A13U A15G U25C U31C U51A U54A | 0 |
| A3G A13U A18G U31A A35G | 0.83 |
| A3G A13U A28U A56G | 0.71 |
| A3G A13U A28U C40U | 0.56 |
| A3G A13U A28U U41A U48C G61A U66G | 0.24 |
| A3G A13U A35G C44A A56U A65G U72A | 0.36 |
| A3G A13U A35G U49A U51C A56G | 1.29 |

| Variant | self-cleavage |
| --- | --- |
| A3G A13U A45C U74C A75G | 0.55 |
| A3G A13U A45G A47U U60C | 1.12 |
| A3G A13U A57C U60A U72G | 0.17 |
| A3G A13U A77C | 0.75 |
| A3G A13U C17A A35G | 0.86 |
| A3G A13U C23A U25C A56U U60C G73A | 0.04 |
| A3G A13U C32A U41C | 0.4 |
| A3G A13U G19A A47U U49C | 0.38 |
| A3G A13U G46U U49A | 0.1 |
| A3G A13U U25A A47G | 0.13 |
| A3G A13U U31A U69C | 0.3 |
| A3G A13U U31C A45G U49C U60C | 0.33 |
| A3G A13U U31C A56G U58C U78C | 0.48 |
| A3G A13U U43A | 1.18 |
| A3G A13U U43C | 0.44 |
| A3G A13U U49A U74A | 1.05 |
| A3G A13U U49C U51C U60A U69C | 0.16 |
| A3G A13U U74C | 1.16 |
| A3G A15C A35U A47G U72C | 0.5 |
| A3G A15C U49C | 0.59 |
| A3G A15G A18G U31A U66C | 0.14 |
| A3G A15G A18G U41C U67A | 0.24 |
| A3G A15G A18G U43A | 0.19 |
| A3G A15G A20G C29U | 0.43 |

| Variant | self-cleavage |
| --- | --- |
| A3G A15G A20G U25A G55U | 0.69 |
| A3G A15G A20G U26A | 0.42 |
| A3G A15G A21G C29A A57G | 0.13 |
| A3G A15G A28G A47G A64G U80C | 0.64 |
| A3G A15G A28G G33U | 0.46 |
| A3G A15G A35U | 0.51 |
| A3G A15G A45G G61A | 0.5 |
| A3G A15G A45U A64U U69A G73A | 0.13 |
| A3G A15G A64C A65G U67C A77G | 0.29 |
| A3G A15G A65G U66C | 0.62 |
| A3G A15G A65U | 0.33 |
| A3G A15G C32U U72C U74C U78A | 0.63 |
| A3G A15G C38U A56G U66C | 0.34 |
| A3G A15G C79A | 0.99 |
| A3G A15G G30A A45U U49A U51A | 0.11 |
| A3G A15G G30A A64U U74A | 0.12 |
| A3G A15G G30C A57G U74A U80C | 0.65 |
| A3G A15G G52A | 0.44 |
| A3G A15G G61A | 0.51 |
| A3G A15G U25C A28G A35G U60C | 0.32 |
| A3G A15G U25C A45G U54A | 0.33 |
| A3G A15G U25C C39G U80A | 0.06 |
| A3G A15G U25C U49C | 0.44 |
| A3G A15G U26A A45C A56G A57G U72C | 0.58 |

| Variant | self-cleavage |
| --- | --- |
| A3G A15G U26A A45C A65G U72C | 0.49 |
| A3G A15G U26A A45C U60A U72C | 0.56 |
| A3G A15G U26C U80C | 0.48 |
| A3G A15G U41G A77U | 0.46 |
| A3G A15G U49A A57U G73C A77G | 0.97 |
| A3G A15G U49C U54C A57G U67C U78C | 0 |
| A3G A15G U54C | 1.01 |
| A3G A15G U54C G73A U80C | 1.25 |
| A3G A15G U67A U74C | 0.37 |
| A3G A15G U67C | 0.41 |
| A3G A15G U69A | 0.26 |
| A3G A15U A18G U43A A57G C62U | 0.07 |
| A3G A15U A18G U69C | 0.99 |
| A3G A15U A18U C38A | 0.36 |
| A3G A15U A20G U25A U58C G73A | 0.43 |
| A3G A15U A35G U41C A45G U78C | 1.16 |
| A3G A15U A35G U66C | 0.97 |
| A3G A15U A47G A75G | 0.48 |
| A3G A15U A64G U69A | 0.25 |
| A3G A15U A64U U72C U76A | 0.43 |
| A3G A15U A75G | 0.7 |
| A3G A15U A77G | 0.67 |
| A3G A15U C38U A47U U58C A64G A77U | 0.04 |
